Source: the supplement of paper PMC4604168 (melanoma cell lines)
Some of the results follow. Single values are uncertain, as repeats are few or missing.

Assays:
Experiment in all cases: cell count relative to DMSO control; melanoma cells; higher = more viable cells
Details in all cases: library dose: low library concentration; 72 h
[1] = test system: WM115
[2] = test system: WM1716
[3] = test system: WM1745
[4] = test system: WM3526
[5] = test system: WM3619
[6] = test system: WM451Lu
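Also: cell number obtained by counting DAPI-stained nuclei in high-throughput microscope images with image analysis software, screen run in 1,536-well plates.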

| Compound | cell count [1] [%] | cell count [2] [%] | cell count [3] [%] | cell count [4] [%] | cell count [5] [%] | cell count [6] [%] |
| --- | --- | --- | --- | --- | --- | --- |
| Cc1nc(Nc2ncc(C(=O)Nc3c(C)cccc3Cl)s2)cc(N2CCN(CCO)CC2)n1 [dasatanib] + COC(=O)c1sccc1S(=O)(=O)Nc1ccc(Nc2ccccc2)cc1OC [GSK0660] (first compound 0.004 µM, partner dose 1 µM) | 64.1 | 60.2 | 60.2 | 97.1 | 104 | 65.3 |
| NCC(=O)Nc1ccc(-n2nc(C(F)(F)F)cc2-c2ccc3c(ccc4ccccc43)c2)cc1 + COc1ccc(-c2ccc3c(N4CCOCC4)nc(N4C[C@@H](C)O[C@@H](C)C4)nc3n2)cc1CO [KU0063794] (first compound 1 µM, partner dose 0.02 µM) | 110 | 104 | 92.7 | 49.1 | 111 | 73.8 |
| C=CCn1c(=O)c2cnc(Nc3ccc(N4CCN(C)CC4)cc3)nc2n1-c1cccc(C(C)(C)O)n1 + CCCCCCCCCCCC1=C(O)C(=O)C=C(O)C1=O [Embelin] (first compound 0.02 µM, partner dose 1.2 µM) | 77.4 | 85.6 | 72.3 | 98.9 | 82 | 111 |
| NC(=O)Nc1cc(-c2cccc(F)c2)sc1C(=O)N[C@H]1CCCNC1 + OCCn1cc(-c2cnc3nnn(Cc4ccc5ncccc5c4)c3n2)cn1 [PF04217903] (first compound 0.02 µM, partner dose 1 µM) | 93.1 | 108 | 88.3 | 76 | 36.7 | 88.3 |
| OCCn1cc(-c2cnc3nnn(Cc4ccc5ncccc5c4)c3n2)cn1 + COC(=O)c1sccc1S(=O)(=O)Nc1ccc(Nc2ccccc2)cc1OC [GSK0660] (first compound 1 µM, partner dose 1 µM) | 107 | 105 | 99.4 | 96 | 110 | 102 |
| C[C@]1(c2nc3c(C(N)=O)cccc3[nH]2)CCCN1 [Veliparib] + O=C(Nc1cccc(Cl)c1)Nc1ncc(CCNc2ncnc3ccsc23)s1 [SNS314] (first compound 1.4 µM, partner dose 0.0008 µM) | 67.5 | 98.9 | 83.2 | 105 | 93.8 | 90.5 |
| CO[C@@H]1[C@H](N(C)C(=O)c2ccccc2)C[C@H]2O[C@]1(C)n1c3ccccc3c3c4c(c5c6ccccc6n2c5c31)C(=O)NC4 [Midostaurin] + COc1cc(N2CCC(N3CCN(C)CC3)CC2)ccc1Nc1ncc(Cl)c(Nc2ccccc2S(=O)(=O)C(C)C)n1 [NVP-TAE684] (first compound 0.08 µM, partner dose 0.08 µM) | 88.4 | 66.2 | 71.1 | 93 | 80.2 | 98.2 |
| CN(C)S(=O)(=O)c1ccc2c(c1)/C(=C/c1cc3c([nH]1)CCCC3)C(=O)N2 + Oc1cc(-c2nc(-c3ccccc3)[nH]c2-c2ccncc2)ccc1Cl [L779450] (first compound 0.4 µM, partner dose 0.2 µM) | 83.5 | 123 | 80.7 | 85.8 | 91.4 | 135 |
| NCC(=O)Nc1ccc(-n2nc(C(F)(F)F)cc2-c2ccc3c(ccc4ccccc43)c2)cc1 + CCN(CC)CCCCNc1ncc2cc(-c3cc(OC)cc(OC)c3)c(NC(=O)NC(C)(C)C)nc2n1 [PD173074] (first compound 1 µM, partner dose 0.1 µM) | 88.5 | 106 | 78.1 | 54 | 116 | 47.3 |
| Cc1nc(Nc2ncc(C(=O)Nc3c(C)cccc3Cl)s2)cc(N2CCN(CCO)CC2)n1 [dasatanib] + COc1cc(Nc2ncc(F)c(Nc3ccc4c(n3)NC(=O)C(C)(C)O4)n2)cc(OC)c1OC [Tamatinib] (first compound 0.004 µM, partner dose 0.4 µM) | 73.8 | 56.2 | 50.4 | 84.1 | 95.6 | 58 |
| Cc1nc(Nc2ncc(C(=O)Nc3c(C)cccc3Cl)s2)cc(N2CCN(CCO)CC2)n1 [dasatanib] + CCN(CC)CCCCNc1ncc2cc(-c3cc(OC)cc(OC)c3)c(NC(=O)NC(C)(C)C)nc2n1 [PD173074] (first compound 0.004 µM, partner dose 0.1 µM) | 67.4 | 80.8 | 59.7 | 110 | 106 | 91.9 |
| OCCn1cc(-c2cnc3nnn(Cc4ccc5ncccc5c4)c3n2)cn1 + O=C1NC(=O)/C(=C/c2ccc(-c3ccc(F)cc3O)o2)S1 [AS252424] (first compound 1 µM, partner dose 1 µM) | 98.1 | 89.9 | 106 | 88 | 69.8 | 91.9 |
| Cc1nc(Nc2ncc(C(=O)Nc3c(C)cccc3Cl)s2)cc(N2CCN(CCO)CC2)n1 [dasatanib] + NC(=O)Nc1cc(-c2cccc(F)c2)sc1C(=O)N[C@H]1CCCNC1 [AZD7762] (first compound 0.004 µM, partner dose 0.02 µM) | 71.1 | 63.9 | 74.5 | 82.6 | 108 | 46.2 |
| CN(C)S(=O)(=O)c1ccc2c(c1)/C(=C/c1cc3c([nH]1)CCCC3)C(=O)N2 + COc1ccc(COc2ccc(Cc3cnc(N)nc3N)cc2OC)cc1 [GW2580] (first compound 0.4 µM, partner dose 1 µM) | 79.2 | 113 | 91.5 | 104 | 99.3 | 114 |
| Cc1nc(Nc2ncc(C(=O)Nc3c(C)cccc3Cl)s2)cc(N2CCN(CCO)CC2)n1 [dasatanib] + Oc1cc(-c2nc(-c3ccccc3)[nH]c2-c2ccncc2)ccc1Cl [L779450] (first compound 0.004 µM, partner dose 0.2 µM) | 57.3 | 78.2 | 67.4 | 74.1 | 106 | 71.6 |
| NCC(=O)Nc1ccc(-n2nc(C(F)(F)F)cc2-c2ccc3c(ccc4ccccc43)c2)cc1 + CN(NC(=O)CC(=O)NN(C)C(=S)c1ccccc1)C(=S)c1ccccc1 [STA4783] (first compound 1 µM, partner dose 0.006 µM) | 85.9 | 70.5 | 46.7 | 50.4 | 53.8 | 62.7 |
| C[C@]1(c2nc3c(C(N)=O)cccc3[nH]2)CCCN1 [Veliparib] + Cn1cncc1[C@@](N)(c1ccc(Cl)cc1)c1ccc2c(c1)c(-c1cccc(Cl)c1)cc(=O)n2C [tipifarnib] (first compound 1.4 µM, partner dose 0.01 µM) | 67 | 64.9 | 76.2 | 85.3 | 105 | 90.2 |
| CN(C)S(=O)(=O)c1ccc2c(c1)/C(=C/c1cc3c([nH]1)CCCC3)C(=O)N2 + COc1cc(N2CCC(N3CCN(C)CC3)CC2)ccc1Nc1ncc(Cl)c(Nc2ccccc2S(=O)(=O)C(C)C)n1 [NVP-TAE684] (first compound 0.4 µM, partner dose 0.08 µM) | 76.4 | 109 | 70.7 | 78.1 | 105 | 64.1 |
| NCC(=O)Nc1ccc(-n2nc(C(F)(F)F)cc2-c2ccc3c(ccc4ccccc43)c2)cc1 + Oc1nc(-c2ccc(C(F)(F)F)cc2)nc2c1CSCC2 [XAV939] (first compound 1 µM, partner dose 2 µM) | 97.8 | 64.1 | 103 | 63.3 | 86.1 | 47.3 |
| Cc1nc(Nc2ncc(C(=O)Nc3c(C)cccc3Cl)s2)cc(N2CCN(CCO)CC2)n1 [dasatanib] + CN(NC(=O)CC(=O)NN(C)C(=S)c1ccccc1)C(=S)c1ccccc1 [STA4783] (first compound 0.004 µM, partner dose 0.006 µM) | 52.6 | 59.4 | 36.7 | 86.1 | 59.6 | 67 |
| Cc1nc(Nc2ncc(C(=O)Nc3c(C)cccc3Cl)s2)cc(N2CCN(CCO)CC2)n1 [dasatanib] + COc1ccc(-c2ccc3c(N4CCOCC4)nc(N4C[C@@H](C)O[C@@H](C)C4)nc3n2)cc1CO [KU0063794] (first compound 0.004 µM, partner dose 0.02 µM) | 73 | 60.1 | 65.9 | 89.2 | 74.1 | 83.1 |
| C[C@]1(c2nc3c(C(N)=O)cccc3[nH]2)CCCN1 [Veliparib] + O=C(Nc1ccccc1)c1cc([N+](=O)[O-])ccc1Cl [GW9662] (first compound 1.4 µM, partner dose 2 µM) | 91.3 | 77.1 | 79.7 | 89.3 | 81.6 | 111 |
| NCC(=O)Nc1ccc(-n2nc(C(F)(F)F)cc2-c2ccc3c(ccc4ccccc43)c2)cc1 + O=C(Nc1ccccc1)c1cc([N+](=O)[O-])ccc1Cl [GW9662] (first compound 1 µM, partner dose 2 µM) | 86.8 | 107 | 92.2 | 41.8 | 91.8 | 56.7 |
| C[C@]1(c2nc3c(C(N)=O)cccc3[nH]2)CCCN1 [Veliparib] + COc1cc(Nc2ncc(F)c(Nc3ccc4c(n3)NC(=O)C(C)(C)O4)n2)cc(OC)c1OC [Tamatinib] (first compound 1.4 µM, partner dose 0.4 µM) | 69.2 | 89.8 | 73.8 | 66.8 | 123 | 104 |
| C[C@]1(c2nc3c(C(N)=O)cccc3[nH]2)CCCN1 [Veliparib] + Cn1cc(/C=C2\C(=O)Nc3cccnc32)c2ccccc21 [GW441756] (first compound 1.4 µM, partner dose 0.4 µM) | 95.5 | 94.1 | 91.2 | 93.2 | 144 | 103 |
| CN(C)S(=O)(=O)c1ccc2c(c1)/C(=C/c1cc3c([nH]1)CCCC3)C(=O)N2 + COc1cc2c(Oc3ccc4[nH]c(C)cc4c3F)ncnc2cc1OCCCN1CCCC1 [cediranib] (first compound 0.4 µM, partner dose 0.4 µM) | 82 | 127 | 96.4 | 92.5 | 84.2 | 84.9 |
